# Laboratory results reported in PubChem BioAssay AID686978 (National Center for Advancing Translational Sciences (NCATS), 2013).
# Several values for one entry are separate records, joined by “and”; a condition that tells them apart may be missing. Equal values may be shown once. The whole screen tested about 420,000 compounds, of which about 64,000 (15%) were called active. The shares of active, inactive and inconclusive entries below differ from those in the screen. Calls follow the shape of the dose curve; as a rule, active = well fitted inhibition curve with a large enough effect; inconclusive = small, poorly fitted or top-dose-only effect; inactive = flat fitted curve, though single readings scatter. Potencies of inconclusive entries are doubtful fits and often do not repeat.
# Assay: qHTS for Inhibitors of human tyrosyl-DNA phosphodiesterase 1 (TDP1): qHTS in cells in absence of CPT; also: nearly all actives have a fitted effect of over 55% in size
# Settings: DT40 Tdp1-/- hTDP1 cells, no CPT, ATP luminescence, 48 h; activity change, negative = growth inhibition: at 46.2 µM (top of the series) unless noted
# Procedure, shortened: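 A cellular qHTS used chicken DT40 cells lacking endogenous Tdp1 but carrying stably transfected human TDP1. Compounds were applied without camptothecin, and cell growth kinetics were judged by ATP-dependent luminescence after ≥48 hr.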
# % is scaled to controls: 0 for no effect and ±100 for the full control effect; potency is read from the fitted curve at half-maximal effect; tags tell the direction and shape of the fitted curve.
SMILES,Potency,"activity change, negative = growth inhibition"
NC(=O)c1cc(-c2csc(NCCc3ccccc3)n2)ccc1O,"inconclusive: 29.1 µM [inhibitor, single point]",–
O=C(c1ccccn1)N1CCCC(N2CCN(c3ccc(F)cc3)CC2)C1 (configuration not stated),–,inactive: 3.57%
C[C@H](CO)N1C[C@H](C)[C@H](CN(C)C(=O)Cc2cccnc2)Oc2ncc(Br)cc2C1=O,–,inactive: 2.94%
COc1ccc(OCCNC(=O)c2ccccc2OCC(=O)Nc2ccc(NC(C)=O)cc2)cc1,active: 14.6 µM,–
Nc1c(C(=O)c2ccccc2)sc(Nc2ccc(Cl)c(Cl)c2)c1C(=O)Nc1ccccc1,active: 4.11 µM,–
Cc1cccc(NC(=O)c2sc(-n3nc(C)c(CCC(C)C)c3C)nc2C)c1,"inconclusive: 18.4 µM [inhibitor, single point]",–
Cc1ccc2c(c1)N(C(=O)N1CCC(C(=O)NCc3ccccc3F)CC1)CC(C)O2 (configuration not stated),active: 18.4 µM,–
CCOC(=O)CSc1nc2c(sc3ccccc32)c(=O)n1Cc1ccc(OC)cc1,"inconclusive: 23.1 µM [inhibitor, single point]",–
COC1=C(OC)C(=O)c2ccccc2C1=O,active: 8.91 µM,–
Fc1ccc(CN2CC[C@H]3C=CCc4cccc(c43)C2)cc1,"inconclusive: 25.9 µM [inhibitor, single point]",–
CC[C@@H]1C(c2cccc(Cl)c2)=NN(c2ccc(Br)cc2)[C@H]1C(=O)N1CCOC1=O,"inconclusive: 20.6 µM [inhibitor, single point]",–
CCOC(=O)[C@H]1[C@H]2COc3cc(OC)ccc3[C@@H]2N2C(=O)c3cc(OC)ccc3NC(=O)[C@@]12C,"inconclusive: 29.1 µM [inhibitor, single point]",–
O=S1(=O)CC(N2CCCC2)CN1Cc1cn(Cc2cccc(Cl)c2)nn1 (configuration not stated),–,inactive: -15.7%
CC1(C)OC(c2ccccc2)=C/C(=C\C=N\NC(=O)c2ccncc2)O1,"inconclusive: 18.4 µM [inhibitor, single point]",–
COc1ccc(C(=O)N2CCC3(CCCN(Cc4nccs4)C3)CC2)cc1,"inconclusive: 32.6 µM [inhibitor, single point]",–
O=C(NC(c1ccc(-c2ccccc2)cc1)c1cnccn1)C1CCN(Cc2ccc(Oc3ccccc3)cc2)CC1 (configuration not stated),"inconclusive: 25.9 µM [inhibitor, partial curve, poor fit]",–
CC(C)C(=O)Nc1cccc(COc2ccccc2CN(Cc2ccccc2)C(=O)OC(C)(C)C)c1,active: 23.1 µM,–
O=C(C1CC2CCC1C2)N1CCN(Cc2ccc3c(c2)OCO3)CC1 (configuration not stated),"inconclusive: 16.4 µM [inhibitor, partial curve]",–
NS(=O)(=O)c1cccnc1Nc1c(Cl)cccc1Cl,–,inactive: -28.1%
Cc1cccc(C)c1N1C(=O)c2ccccc2NC(=O)C1C(=O)Nc1ccc(N2CCOCC2)cc1 (configuration not stated),active: 14.6 µM,–
Cc1cccc(-c2nn(-c3ccccc3)cc2C(=O)N(C)CC(=O)Nc2ccc(N3CCOCC3)cc2)c1,–,inactive: -28.6%
COc1cc2ccccc2cc1C(=O)Nc1ccc2oc(-c3cccc(C)c3)nc2c1,"inconclusive: 29.1 µM [inhibitor, single point]",–
CCCCn1c(SCC(=O)N2CCN(c3ccccc3)CC2)nc2ccsc2c1=O,"inconclusive: 20.6 µM [inhibitor, single point]",–
O=C1CSC(=S)N1Cc1cccnc1,active: 4.61 µM,–

SMILES,Potency,"activity change, negative = growth inhibition"
CCOC(=O)c1c(C)[nH]c(C)c1S(=O)(=O)N(C)CC(=O)Nc1ccc(C)cn1,–,inactive: 17.1%
CCOC(=O)c1c(-c2ccccc2)oc2ccc(OCC)cc12,–,inactive: 0.518%
CCOC(=O)C1=C(C)N=C2SC(C)C(=O)N2C1c1cccc(F)c1 (configuration not stated),"inconclusive: 18.4 µM [inhibitor, single point]",–
COc1ccc(OC)c(NC(=O)N2CCN(Cc3nc4ccc(C)cc4o3)CC2)c1,–,inactive: -2.14%
CCOC(=O)C1(C)CCN1C(=O)c1ccc(F)c(Cl)c1 (configuration not stated),–,inactive: -15.9%
COc1ccccc1-c1cc(C(=O)N/N=C/c2ccoc2)c2ccccc2n1,active: 7.31 µM,–
N/C(=N\OC(=O)c1cnn(-c2ccccc2)c1C(F)(F)F)c1cc(C(F)(F)F)cc(C(F)(F)F)c1,"inconclusive: 29.1 µM [inhibitor, single point]",–
COc1ccc(-c2cn3c(n2)sc2cc(C(=O)Nc4ccc(C)cc4C)ccc23)cc1,"inconclusive: 25.9 µM [inhibitor, single point]",–
COc1ccccc1Cc1c(-c2ccc(C#N)cc2)nc2c(Cl)cc(C(F)(F)F)cn12,active: 14.6 µM,–
Cc1ccc(NC(=O)c2ccc([N+](=O)[O-])o2)cc1S(=O)(=O)N1CCOCC1,active: 4.61 µM,–
CCCCNC(=O)CCCn1c(=O)c2ccccc2n(CC(=O)NCCC2=CCCCC2)c1=O,"inconclusive: 23.1 µM [inhibitor, partial curve]",–
CN(Cc1ccon1)C(=O)C1CCN(C2CCN(CCCc3ccccc3)CC2)CC1,"inconclusive: 29.1 µM [inhibitor, single point]",–
O=S(=O)(c1ccccc1)c1nc(-c2ccccc2F)oc1N1CCOCC1,"inconclusive: 29.1 µM [inhibitor, single point]",–
COc1cc(C2C(C#N)=C(N)Oc3c2c(-c2ccccc2)nn3-c2ccccc2)cc(OC)c1OC (configuration not stated),"inconclusive: 23.1 µM [inhibitor, single point]",–
O=C(Nc1ccccn1)c1cc2cc([N+](=O)[O-])ccc2s1,–,inactive: -29.6%
COc1ccccc1NS(=O)(=O)c1cc(NC(=O)CCc2nc3ccccc3c(=O)[nH]2)ccc1C,"inconclusive: 29.1 µM [inhibitor, single point]",–
CCC(C)NC(=S)Nc1ccc2nc(N3CCOCC3)cc(C)c2c1 (configuration not stated),"inconclusive: 29.1 µM [inhibitor, single point]",–
CC(C)N(C(=S)Nc1cc(S(=O)(=O)N2CCOCC2)ccc1Cl)c1ccccc1,–,inconclusive: -31% [inhibitor]
CCOc1ccc(NC(=O)CN(C)C(=O)c2cccc(S(=O)(=O)N3CCCC3)c2)cc1OCC,–,inactive: -11.3%
CN1CCC/C1=C1/C(=O)N(c2ccccc2)N=C1NC(=O)Nc1cccc(Cl)c1,active: 14.6 µM,–
COc1ccccc1N1CCN(CCCn2c(=S)[nH]c3ccccc3c2=O)CC1,active: 9.2 µM,–
Cc1ccc(S(=O)(=O)CCC(=O)N2CCN(c3ccc([N+](=O)[O-])cc3)CC2)cc1,active: 10.3 µM,–
Cc1cc(-n2nc3ccc(Cl)cc3n2)c(O)c(C(C)(C)C)c1,–,inactive: 4.4%
CC(=O)c1ccc(OCC(=O)Nc2c(C)nn(-c3ccccc3)c2C)cc1,"inconclusive: 29.1 µM [inhibitor, single point]",–

SMILES,Potency,"activity change, negative = growth inhibition"
Oc1[nH]c2ccccc2c1N=Nc1nc2ccccc2s1,"inconclusive: 23.1 µM [inhibitor, single point]",–
CN(C)c1ccc(-c2noc(C3CCN(S(=O)(=O)c4ccc(C(=O)O)cc4)CC3)n2)cc1,"inconclusive: 29.1 µM [inhibitor, single point]",–
COC(=O)Nc1ccc2c(c1)N(C(=O)CCN1CCOCC1)c1ccccc1S2,–,inactive: 3.5%
CCN1C(=O)c2ccccc2Sc2ccc(NC(=O)c3ccc(C#N)cc3)cc21,active: 16.4 µM,–
Clc1ccc(-c2nnc(-c3ccco3)nc2N2CCCCC2)cc1,active: 20.6 µM,–
O=S(=O)(NCCN1CCOCC1)c1cccc(C(F)(F)F)c1,–,inactive: -0.946%
CCC(CO)Oc1cc(NC(=O)c2ccc(C)cc2)c2ncn(C(C)C)c2c1 (configuration not stated),"inconclusive: 29.1 µM [inhibitor, single point]",–
Cc1ccccc1NCc1nc2ccccc2n1CCOc1ccccc1,"inconclusive: 23.1 µM [inhibitor, single point]",–
NC(=O)CC(NC(=O)Cc1cccc2ccccc12)c1ccc(N2CCc3ccccc3C2)c([N+](=O)[O-])c1 (configuration not stated),"inconclusive: 25.9 µM [inhibitor, single point]",–
CC(C(=O)N1CCCCC1)N(C)CC(=O)Nc1cccc(F)c1 (configuration not stated),–,inactive: 4.81%
OC(CNCC1COc2ccccc2O1)COCc1cccs1 (configuration not stated),"inconclusive: 14.6 µM [inhibitor, partial curve]",–
COCCN(CCOC)c1nc(-c2ccc(Cl)cc2)nc2ccccc12,active: 13 µM,–
CCOc1ccc(NC(=O)CN(C)C(=O)c2cc(-c3ccco3)nc3ccccc23)cc1OCC,active: 18.4 µM,–
O=C(Nc1nc(-c2ccccn2)cs1)c1ccc2c(c1)OCCO2,active: 3.26 µM,–
Cc1ccc(Nc2nc(CSc3n[nH]c(N)n3)cs2)cc1,–,inactive: 4.66%
CN(C(=O)Cn1nnc(-c2ccc(S(C)(=O)=O)cc2)n1)c1ccccc1,–,inactive: -10.7%
O=[N+]([O-])c1ccc2nonc2c1Nc1ccccc1,–,inactive: -6.36%
Cc1cc(C)n(C(=O)N(c2ccccc2)c2ccccc2)n1,"inconclusive: 2.59 µM [inhibitor, full curve]",–
O=C(c1cnn(C(=O)c2ccccc2)c1)c1ccccc1O,"inconclusive: 23.1 µM [inhibitor, single point]",–
COc1ccc(C(=O)Nc2nc3c(s2)Cc2cc(OC)ccc2-3)cc1,"inconclusive: 10.3 µM [inhibitor, partial curve] and inconclusive: 16.4 µM [inhibitor, partial curve]",–
O=Nc1ccc(NOC(=O)c2ccccc2Br)cc1,"inconclusive: 18.4 µM [inhibitor, single point]",–
CCOC(=O)c1ccc(N2C(=O)C(O)=C(C(C)=O)C2c2ccccn2)cc1 (configuration not stated),–,inactive: 0.443%
COc1ccccc1CNC(=O)COC(=O)c1cc(=O)[nH]c2ccccc12,–,inactive: 1.94%
COc1c(Cl)ccc(Cl)c1C(=O)NC(=S)N1CCOCC1,"inconclusive: 16.4 µM [inhibitor, single point]",–
